# Assay results published in PubChem BioAssay AID504333 (National Center for Advancing Translational Sciences (NCATS), 2011).
# The whole screen tested about 360,000 compounds, of which about 16,000 (4.4%) were called active. The shares of active, inactive and inconclusive entries below differ from those in the screen. Calls come from the whole dose curve; as a rule, active = well fitted inhibition curve with a large enough effect; inconclusive = small, poorly fitted or top-dose-only effect; inactive = no such curve, though single readings can be large or run the other way. Where the call is inconclusive, the potency comes from a doubtful curve fit.
# Target: Bromodomain adjacent to zinc finger domain protein 2B (Homo sapiens) (UniProt Q9UIF8)
# Test: qHTS Assay for Inhibitors of BAZ2B; note: nearly all actives have a fitted effect of over 60% in size
# Details: AlphaScreen BAZ2B-H3K14Ac peptide displacement; activity change, negative = inhibition: at 114 µM (top of the series) unless noted
# Summary of the method: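 In this displacement format the biotinylated H3(5-23) peptide acetylated at Lys14 serves as ligand at 50 nM, with BAZ2B at 50 nM in PBS pH 7.4 containing 0.01% Tween-20. Donor and acceptor beads are 10 ug/mL final.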
# % is set by controls: 0 for no effect and ±100 for the full control effect; potency is the fitted concentration of half-maximal effect; tags give direction and shape of the fitted curve.
# UniProt Q9UIF8, sequence (Q9UIF8 whole entry, looked up, the tested form may be a part): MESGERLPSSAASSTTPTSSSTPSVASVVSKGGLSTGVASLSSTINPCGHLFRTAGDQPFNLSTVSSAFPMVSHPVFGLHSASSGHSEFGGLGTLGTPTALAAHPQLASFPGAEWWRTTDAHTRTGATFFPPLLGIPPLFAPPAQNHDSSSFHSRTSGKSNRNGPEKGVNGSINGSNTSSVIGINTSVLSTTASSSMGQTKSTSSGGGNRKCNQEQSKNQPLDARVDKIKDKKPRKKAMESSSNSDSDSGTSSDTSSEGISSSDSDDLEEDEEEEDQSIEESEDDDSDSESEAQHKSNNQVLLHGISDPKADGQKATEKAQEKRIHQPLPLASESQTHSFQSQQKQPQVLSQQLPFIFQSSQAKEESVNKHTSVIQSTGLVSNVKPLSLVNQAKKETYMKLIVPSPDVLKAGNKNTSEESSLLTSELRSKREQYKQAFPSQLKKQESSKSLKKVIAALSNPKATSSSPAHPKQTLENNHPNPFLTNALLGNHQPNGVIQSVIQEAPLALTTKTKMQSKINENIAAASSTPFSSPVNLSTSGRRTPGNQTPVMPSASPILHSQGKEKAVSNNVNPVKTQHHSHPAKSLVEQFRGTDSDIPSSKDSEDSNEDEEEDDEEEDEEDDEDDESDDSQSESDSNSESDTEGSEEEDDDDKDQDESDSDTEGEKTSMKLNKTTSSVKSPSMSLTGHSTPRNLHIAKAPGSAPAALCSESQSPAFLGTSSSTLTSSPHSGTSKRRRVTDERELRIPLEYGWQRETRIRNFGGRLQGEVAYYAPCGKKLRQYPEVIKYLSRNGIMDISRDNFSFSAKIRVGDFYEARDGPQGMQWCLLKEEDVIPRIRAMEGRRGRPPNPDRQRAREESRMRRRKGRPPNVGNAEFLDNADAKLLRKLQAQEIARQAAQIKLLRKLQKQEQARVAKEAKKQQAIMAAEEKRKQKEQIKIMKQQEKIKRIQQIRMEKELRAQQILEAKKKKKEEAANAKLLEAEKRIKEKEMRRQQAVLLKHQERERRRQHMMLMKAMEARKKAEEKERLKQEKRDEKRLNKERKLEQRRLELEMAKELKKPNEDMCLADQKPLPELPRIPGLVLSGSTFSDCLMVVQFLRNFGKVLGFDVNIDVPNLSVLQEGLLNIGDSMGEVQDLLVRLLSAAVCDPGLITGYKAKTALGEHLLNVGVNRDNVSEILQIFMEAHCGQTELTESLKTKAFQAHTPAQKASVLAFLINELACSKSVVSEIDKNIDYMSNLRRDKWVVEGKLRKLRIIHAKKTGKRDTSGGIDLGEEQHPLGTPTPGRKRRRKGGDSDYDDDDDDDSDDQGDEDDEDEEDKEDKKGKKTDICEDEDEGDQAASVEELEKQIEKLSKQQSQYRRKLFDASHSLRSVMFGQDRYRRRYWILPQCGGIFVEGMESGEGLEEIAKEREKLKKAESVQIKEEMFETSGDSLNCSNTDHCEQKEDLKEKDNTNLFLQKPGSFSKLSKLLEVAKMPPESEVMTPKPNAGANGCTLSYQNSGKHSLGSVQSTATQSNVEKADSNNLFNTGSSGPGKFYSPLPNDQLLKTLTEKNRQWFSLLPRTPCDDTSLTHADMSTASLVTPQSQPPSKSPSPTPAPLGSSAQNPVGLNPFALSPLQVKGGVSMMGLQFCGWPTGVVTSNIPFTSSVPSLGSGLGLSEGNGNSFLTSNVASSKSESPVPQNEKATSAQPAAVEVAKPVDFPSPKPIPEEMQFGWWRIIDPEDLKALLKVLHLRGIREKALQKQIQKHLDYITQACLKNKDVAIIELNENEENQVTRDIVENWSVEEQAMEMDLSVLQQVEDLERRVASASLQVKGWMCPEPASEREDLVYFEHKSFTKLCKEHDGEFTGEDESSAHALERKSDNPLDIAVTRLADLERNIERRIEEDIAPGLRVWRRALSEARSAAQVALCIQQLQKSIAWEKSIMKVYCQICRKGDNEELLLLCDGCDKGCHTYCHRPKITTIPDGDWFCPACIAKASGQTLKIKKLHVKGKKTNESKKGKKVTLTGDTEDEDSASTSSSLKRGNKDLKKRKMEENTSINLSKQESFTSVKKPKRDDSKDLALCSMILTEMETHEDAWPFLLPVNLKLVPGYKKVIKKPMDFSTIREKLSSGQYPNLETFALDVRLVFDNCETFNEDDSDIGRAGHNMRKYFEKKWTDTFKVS
SMILES,Potency,"activity change, negative = inhibition"
Cc1nnc(-c2cnn(C)c2N)n1Cc1cccc(Cl)c1,"inconclusive: 89.1 µM [inhibitor, single point]",–
Cc1cc([N+](=O)[O-])ccc1NC(c1nnc(-c2ccccc2)o1)c1ccccc1F (centres undefined),–,inactive: -28.3%
O=C(Nc1cccnc1)c1cc(-c2ccc(F)cc2)on1,"inconclusive: 79.4 µM [inhibitor, single point]",–
COC(=O)c1cnn2c1C(=O)N(Cc1cccs1)CC2,–,inactive: -8.33%
O=c1[nH]c(CCl)nc2cc(-c3ccc(Cl)cc3)sc12,"inconclusive: 100 µM [inhibitor, single point]",–
COc1ccc(OC)c(C2C3CN(C(C)C)CC=C3C(C#N)=C(N)C2(C#N)C#N)c1 (centres undefined),"inconclusive: 70.8 µM [inhibitor, single point]",–
O=C1NC(c2ccco2)Nc2sc3c(c21)CCN(Cc1ccccc1)C3 (centres undefined),"inconclusive: 39.8 µM [inhibitor, partial curve]",–
Cc1ccc2cc(C3C(C#N)=C(N)Oc4c3ccc3cccnc43)c(=O)[nH]c2c1 (centres undefined),"inconclusive: 79.4 µM [inhibitor, single point]",–
COc1ccc(Br)cc1/C=C/C(=O)NC(=S)Nc1ccc(CN2CCOCC2)cc1,"inconclusive: 20 µM [inhibitor, partial curve]",–
Cc1cccc(NC(=O)c2sc3nc4c(cc3c2N)CN(C(C)C)CC4)c1,"inconclusive: 50.1 µM [inhibitor, partial curve]",–
CCc1cc(=S)n2c([nH]c3ccccc32)c1C#N,active: 79.4 µM,–
CCOC(=O)CNC(=O)CSc1nc(N)cc(N)n1,–,inactive: -1.41%
O=c1ccnc(Sc2ncccc2[N+](=O)[O-])[nH]1,–,inactive: 3.46%
CCOc1cc(CNc2ccc(N3CCCC3)cc2)cc(Cl)c1OC,active: 12.6 µM,–
COc1ccc(C(=O)/C(=C\c2sccc2C)c2nc3ccccc3o2)cc1,"inconclusive: 56.2 µM [inhibitor, single point]",–
O=C1/C(=C\c2ccco2)SC(=S)N1c1ccccc1,"inconclusive: 8.91 µM [inhibitor, full curve, poor fit]",–
COc1cc(CNCCO)cc(Br)c1OCc1ccccc1Cl,–,inactive: -1.58%
Cc1cc(/C=N/Nc2ccc([N+](=O)[O-])cn2)c(C)n1-c1ccccc1,"inconclusive: 89.1 µM [inhibitor, single point]",–
Cc1cc(C(=O)N/N=C2/CC(C)CC(C)(C)C2)c(C)o1 (centres undefined),"inconclusive: 79.4 µM [inhibitor, single point]",–
Nc1nc(SCc2ccc(Cl)cc2Cl)nc2nc3c(cc12)CCCC3,"inconclusive: 89.1 µM [inhibitor, single point]",–
COc1cc(C(C)=O)ccc1Oc1cc(NN2CCCCC2)c([N+](=O)[O-])cc1[N+](=O)[O-],"inconclusive: 8.91 µM [inhibitor, full curve]",–
Cn1cccc1Cc1nnc(SCC(=O)Nc2ccccc2)n1-c1ccc(F)cc1,"inconclusive: 44.7 µM [inhibitor, partial curve]",–
CCC1OC23CCCCC2C(C#N)(C(=N)O3)C1(C#N)C#N (centres undefined),"inconclusive: 100 µM [inhibitor, single point]",–
COc1cccc(C(=O)Nc2nnc(-c3cccs3)o2)c1,"inconclusive: 89.1 µM [inhibitor, single point]",–
CCCSc1nc(C)c(-c2csc(C(C#N)=C3CCCC3)n2)cc1C#N,active: 20 µM,–

SMILES,Potency,"activity change, negative = inhibition"
COC(=O)/C(=C/c1cn(C)c2ccccc12)[N+](=O)[O-],"inconclusive: 39.8 µM [inhibitor, full curve]",–
CN(C)CCOc1cccc(Cl)c1,"inconclusive: 89.1 µM [inhibitor, single point]",–
CC1CN(C/C(=N\O)C23CC4CC(CC(C4)C2)C3)CC(C)O1 (centres undefined),–,inactive: -4.43%
O=C1/C(=C/c2ccc(O)c(O)c2)SC(=S)N1Nc1ccccc1,active: 3.55 µM,–
COc1ccc(OC)c(S(=O)(=O)N2CCN(CC(O)COc3ccccc3)CC2)c1 (centres undefined),"inconclusive: 89.1 µM [inhibitor, single point]",–
CCOC(=O)CN1C(=O)S/C(=C/C=C/c2ccc(N(C)C)cc2)C1=O,active: 10 µM,–
CCN1CCC(N(Cc2cccc(OC)c2)C(=O)Nc2ccc(C)cc2Cl)CC1,–,inactive: -1.63%
CCOC(=O)C1=C(O)/C(=C/c2cc(OC)c(OC)c(OC)c2)N=C1C,–,inactive: -10%
Cc1coc2c(C)c3oc(=O)c(CCC(=O)NCCCn4ccnc4)c(C)c3cc12,–,inactive: -37.5%
CCCn1c(O)c(N=NC(=O)CNC(=O)/C=C/c2ccc(OC)cc2)c2ccccc21,"inconclusive: 31.6 µM [inhibitor, single point]",–
Cc1ccc(Nc2nc(C(=O)NCc3ccco3)cs2)cc1,"inconclusive: 56.2 µM [inhibitor, partial curve]",–
CC1=NN(c2cccc(C(=O)O)c2)C(=O)/C1=C\C=C\c1ccco1,active: 10 µM,–
Cc1ccc(NC(=O)Cn2c(-c3ccc4c(c3)OCO4)cn(-c3ccccc3)c2=O)cc1,"inconclusive: 7.94 µM [inhibitor, full curve]",–
CCc1ccc(NC(=O)CSc2nc3ncc(Br)cc3[nH]2)cc1,–,inactive: -4.26% [at 57.1 µM]
COc1ccc(CNC(=O)CC2N=C3c4ccccc4N=C(SCC(=O)Nc4ccc(N(C)C)cc4)N3C2=O)cc1 (centres undefined),"inconclusive: 56.2 µM [inhibitor, partial curve]",–
CCOc1ccccc1NC(=O)CC1Nc2ccccc2NC1=O (centres undefined),–,inactive: -28.3%
O=C(CSc1oc(-c2ccco2)nc1S(=O)(=O)c1ccc(Cl)cc1)c1ccc(Cl)cc1,"inconclusive: 8.91 µM [inhibitor, full curve]",–
Cc1ccc2oc(=O)c3cc(C(=O)N(Cc4ccccc4)C(C)C)sc3c2c1,–,inactive: 1.65%
Cc1cc(C)nc(NC(=O)CSc2nc3ccccc3o2)n1,"inconclusive: 7.08 µM [inhibitor, single point]",–
CC(C)[C@H](NC(=O)c1ccccc1)C(=O)OCC(=O)N1CCCc2ccccc21,–,inactive: -28.1%
Cc1[nH]n(-c2ccccc2)c(=O)c1/C=N/NC(=O)C(C)C,active: 31.6 µM,–
O=C(CCc1nc(-c2ccccc2F)no1)NCCN1CCc2ccccc2C1,"inconclusive: 89.1 µM [inhibitor, single point]",–
CCOc1ccc(-c2c(C(=O)N/N=C/c3cccnc3)nnn2-c2nonc2N)cc1,"inconclusive: 39.8 µM [inhibitor, single point]",–
COCCN(CC(=O)Nc1cccc(C)c1C)C(=O)c1ccc2ccccc2n1,–,inactive: -20.1%
CC(=O)Nc1ccccc1O,"inconclusive: 100 µM [inhibitor, partial curve, poor fit]",–

SMILES,Potency,"activity change, negative = inhibition"
Clc1cccc(-c2ccc(C=Nc3ccc(N4CCOCC4)cc3)o2)c1,active: 31.6 µM,–
NN1C(=O)/C(=C\c2ccco2)SC1=S,active: 44.7 µM,–
CCc1ccc(CN(C(=O)c2cc3ccccc3oc2=O)C2CCS(=O)(=O)C2)cc1 (centres undefined),"inconclusive: 89.1 µM [inhibitor, single point]",–
Cc1ccc2nc(N(Cc3cccnc3)C(=O)C3COc4ccccc4O3)sc2c1 (centres undefined),–,inactive: 3.94%
COc1ccc(Cl)cc1NC(=O)CCC(=O)c1ccc(C)cc1,–,inactive: -0.278%
CC(=O)c1ccc(NC(=O)c2ncn(-c3ccccc3)n2)cc1,–,inactive: 5.43%
CC(C)(C)NC(=O)C(c1ccncc1)N(Cc1ccco1)C(=O)c1ccc(-c2ccccc2)[nH]1 (centres undefined),"inconclusive: 56.2 µM [inhibitor, partial curve]",–
CCOc1ccc(-c2cnc(NCc3ccc(OC)cc3OC)n2C)cc1,"inconclusive: 39.8 µM [inhibitor, partial curve]",–
COCCNC(=O)C1CCCN(S(=O)(=O)c2ccc3c(ccn3C)c2)C1 (centres undefined),–,inactive: -0.844%
Cc1cccc2cc(/C=C/C(=O)c3ccco3)c(Cl)nc12,"inconclusive: 70.8 µM [inhibitor, partial curve]",–
Cc1ccc(NC(=O)c2cccn2-c2nnc(N3CCCCC3)s2)cc1Cl,–,inactive: -29%
COc1ccccc1C(=O)Oc1cc(N)n(S(=O)(=O)c2ccccc2)n1,"inconclusive: 70.8 µM [inhibitor, single point]",–
COCCCN1C(=O)C(=O)/C(=C(/O)c2ccc(OC(C)C)cc2)C1c1cccnc1 (centres undefined),"inconclusive: 89.1 µM [inhibitor, single point]",–
CCOC(=O)C1=NOC2C3CC(C12)C1C(=O)N(CCc2ccc(OC)c(OC)c2)C(=O)C31 (centres undefined),"inconclusive: 79.4 µM [inhibitor, single point]",–
COc1cc(NC(=O)c2ccco2)c(C(=O)OCC(=O)Nc2ncc(Cl)cc2Cl)cc1OC,–,inactive: -4.41%
Cc1ccccc1NC(=O)C1c2cccc[n+]2CC(=O)N1c1c(C)cccc1C (centres undefined),active: 44.7 µM,–
Cc1cc(C(=O)N/N=C/c2cc(N=Nc3ccccc3)ccc2O)n[nH]1,–,inactive: -32.2%
COc1ccc(CCNc2oc(-c3ccc(OC)c(OC)c3)nc2C#N)cc1,"inconclusive: 35.5 µM [inhibitor, full curve]",–
CCCOC(=O)/C(=C\C=C\c1ccccc1)NC(=O)c1ccccc1,–,inactive: 2.48%
COc1cc2ccccc2cc1C(=O)N(CCN(C)C)c1nc2ccc(Br)cc2s1,"inconclusive: 11.2 µM [inhibitor, partial curve]",–
CCOC(=O)c1cnc2ccc(C(=O)OC)cc2c1Nc1ccc2c(c1)OCCO2,"inconclusive: 89.1 µM [inhibitor, single point]",–
C=CCNC(=O)/C(C#N)=C/c1c(N2CCCCCC2)nc2ccccn2c1=O,–,inactive: -2.99%
Cc1cc(-c2nn(-c3ccccc3F)cc2CNCCc2cnccn2)c(C)s1,"inconclusive: 89.1 µM [inhibitor, single point]",–
CC1=CC(C)(C)Nc2ccc(OC(=O)C(Cc3ccccc3)N3C(=O)c4ccccc4C3=O)cc21 (centres undefined),"inconclusive: 8.91 µM [inhibitor, full curve]",–
